Measured values reported in PubChem BioAssay AID743279 (National Center for Advancing Translational Sciences (NCATS), 2014).
Hit rate of the full screen: of about 360,000 compounds, about 17,000 (4.7%) were called active. This list was built around the results that the source calls inconclusive (neither active nor inactive); the mix of calls is not that of the screen. Rule as the data show it: active = activity change below about -50%; inconclusive = mostly about -30% to -49%; inactive = weaker than that.

Experiment: qHTS for Inhibitors of Inflammasome Signaling: IL-1-beta AlphaLISA Primary Screen
Details: THP-1 LPS/ATP IL-1B secretion, 16 h; at 57.5 µM, stronger effect = lower value
Method in brief: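 THP-1 cells pretreated 1 hr with compounds (up to 57.5 uM final), then stimulated with LPS (250 ng/mL final) plus ATP (1.25 mM final); secreted IL-1B measured by AlphaLISA after 16 hr, decreased signal indicating inhibition.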
% is scaled to controls: 0 for no effect and ±100 for the full control effect.

SMILES | activity change
COc1cccc(Oc2ccc(C(F)(F)F)cc2N)c1 | active: -69.5%
Cc1ccc(S(=O)(=O)N2CCN(C(=O)COc3ccc(C)nc3[N+](=O)[O-])CC2)c(C)c1 | inconclusive: -35.4%
CCC(=O)Nc1ccc(Nc2nc(C)c([N+](=O)[O-])c(Nc3ccc(NC(=O)CC)cc3)n2)cc1 | inactive: 6.46%
Cc1ccc(COc2cccc3c2CCN(Cc2ccc(F)cc2)C3=O)cc1 | inconclusive: -32.6%
Cc1ccc(C(=O)N/C(=C\c2cn(C)c3ccccc23)C(=O)NCCCN2CCOCC2)cc1 | inactive: -2.56%
COc1ccc(C(=O)c2sc(Nc3ccccc3F)nc2N)cc1 | inconclusive: -40.1%
O=[N+]([O-])c1cc(S(=O)(=O)N2CCCCCC2)ccc1F | inconclusive: -37.2%
O=S1(=O)N[C@@H](Cc2ccccc2)COc2cccc(N3CCN(Cc4ccccc4F)CC3)c21 | inactive: 14.8%
COc1cccc(NC(=O)C2C3C=CC4(O3)C2C(=O)N(CCCN2CCCCC2)C4C(=O)NC2CCCCC2)c1 (centres undefined) | inactive: -4.24%
C[C@H](CO)N1C[C@H](C)[C@@H](CN(C)S(C)(=O)=O)Oc2ccc(N(C)C)cc2C1=O | inactive: 11.1%
CC(=O)c1cccc(N(C(=O)CNC(=O)c2ccco2)C(C(=O)NC2CCCC2)c2ccncc2)c1 (centres undefined) | inconclusive: -36%
COc1cc(Cl)c(C)cc1NC(=O)c1cc(S(=O)(=O)N(C)C)ccc1N1CCCC1 | inconclusive: -30.4%
CC(C)Cn1c(SCC#N)nc2ccccc2c1=O | inactive: 4.24%
COc1cc(NC(=O)Cc2ccccc2)ccc1NC(=O)c1ccco1 | inconclusive: -45.3%
CCN1C[C@@H]2[C@@H]3C(=O)N(Cc4ccccc4)C(=O)[C@@H]3[C@](C)(C1=O)N2C(=O)c1ccc(Cl)c(Cl)c1 | inconclusive: -30.2%
O=C(c1ccco1)N1N=C(c2ccc(Cl)cc2)CC1c1ccco1 (centres undefined) | inconclusive: -48.7%
CC1(c2ccccc2)NC(=O)N(CC(=O)NCc2cccc(Cl)c2)C1=O (centres undefined) | inactive: -8.95%
CN1CCC[C@@H]1CCNC(=O)c1c(-c2ccc3c(c2)OCO3)noc1-c1ccsc1 | active: -76.4%
COc1ccc(-n2cc(CNCCc3cscn3)c(-c3ccccc3Cl)n2)cc1 | active: -63.3%
c1ccc(CNc2ncnc3scc(-c4cccs4)c23)nc1 | inconclusive: -31.1%
COc1cccc(Cn2nnc(C(=O)Nc3ccc(C)cc3)c2N)c1 | inconclusive: -32.6%
CCC(C(=O)NCCc1c[nH]c2ccc(C)cc12)c1ccccc1 (centres undefined) | inactive: -23.9%
CC(=O)c1ccc(C(=O)N2CCC(n3nccc3NC(=O)C3CC3)CC2)cc1 | inactive: 6.47%
Cc1cc(OCc2cc(C(=O)N(C)CCCN3CCOCC3)no2)cc(C)c1Cl | inconclusive: -36.8%
O=C(CSc1ncccc1-c1nc2ccccc2[nH]1)NC1CC1 | inactive: -9.33%
COc1ccc(NC(=S)Nc2cc(C)[nH]n2)cc1Cl | inconclusive: -41.2%
CCn1cc(C(=O)N2CCN(c3cccc(C)c3C)CC2)c(=O)c2ccc(C)nc21 | inconclusive: -34.8%

SMILES | activity change
Cc1cc(C(=O)COC(=O)C(C)NC(N)=O)c(C)n1Cc1ccco1 (centres undefined) | active: -103%
COc1ccnc(N=CNOCc2ccc(F)cc2Cl)c1C#N | inconclusive: -31.2%
N#Cc1ccc(OCC(=O)N2CCN(S(=O)(=O)c3ccc(Cl)s3)CC2)cc1 | inconclusive: -33.4%
CC1(C)CC(=O)C=C(NNC(=O)c2ccccc2)C1 | inactive: -18.4%
OCCOCCNc1ncnc2c1c(-c1ccccc1)cn2-c1ccccc1 | inconclusive: -41.5%
O=c1c(/C=C(\O)c2ccccc2)nc2ccccc2n1-c1ccccc1 | inconclusive: -46.8%
CC(=O)Nc1c(Cl)cnn(-c2ccccc2)c1=O | inconclusive: -34.3%
O=C(c1ccncc1)N(Cc1ccccc1)Cc1nc2ccccc2c(=O)[nH]1 | inactive: 15.1%
Oc1ccc(/C=N/Nc2cc(N3CCOCC3)nc(N3CCOCC3)n2)cc1O | inactive: 25.2%
Cc1ccc(C(=O)N/C(=C\c2cn(S(=O)(=O)N(C)C)c3ccccc23)C(=O)NCCCn2ccnc2)cc1 | inconclusive: -40.1%
O=C(C1CCCN(S(=O)(=O)c2cccnc2)C1)N1CCN(c2ccccn2)CC1 (centres undefined) | inactive: 49.8%
CCOc1ccc(NC(=O)CCN2C(=O)CSc3ccccc32)cc1 | inconclusive: -35.4%
O=C(CN(C(=O)CNC(=O)c1ccco1)c1ccc(Cl)c(Cl)c1)NC1CCCCC1 | inconclusive: -34.4%
COc1ccc(Cn2c(=O)[nH]c3cc(C(=O)N4CCN(c5ccc(C(C)=O)cc5)CC4)ccc3c2=O)cc1 | inactive: 26.8%
COCCNc1oc(COc2cccc(C)c2)nc1C#N | inconclusive: -31.5%
Cc1ccc(-c2[nH]ncc2/C=N/n2c(COc3ccccc3C)nc3ccccc3c2=O)cc1 | active: -99.4%
COc1ccc(OC)c(C2NC(=O)N(C)C(C)=C2C(=O)OCc2ccccc2)c1 (centres undefined) | inconclusive: -30.3%
Cc1ccccc1Cn1c(C)c(C(=O)NCc2cccc(Cl)c2)sc1=O | inconclusive: -49.4%
CC(C)(C)c1ccc2c(c1)OC(C(=O)N/N=C\c1ccccn1)CO2 (centres undefined) | inconclusive: -45.1%
COc1ccc(C2=NN(C(=O)c3cccs3)C(c3ccccc3OC)C2)cc1OC (centres undefined) | active: -84.1%
Cn1c2ccc(F)cc2c2ncn(CC3CCCO3)c(=O)c21 (centres undefined) | inconclusive: -41.5%
O=C(NC(c1ccccc1)c1ccsc1)C1CCN(Cc2ccc(Cl)c(Cl)c2)CC1 (centres undefined) | inconclusive: -33.9%
O=C(CC(O)CCc1ccccc1)c1ccc(O)cc1 (centres undefined) | inactive: -3.11%
COc1cnn(-c2ccccc2)c(=O)c1SCc1ccc(Cl)c(Cl)c1 | inconclusive: -46.2%
CC(C)n1cc(CN2CCN(CCc3ccccc3)C(CCO)C2)cn1 (centres undefined) | inconclusive: -37.2%
O=C1C(Cc2ccc(Br)cc2)SC(=Nc2ccccc2)N1c1ccccc1 (centres undefined) | inactive: 0%
Cn1nc(C(=O)N2CCOCC2)c([N+](=O)[O-])c1C(=O)N1CCOCC1 | inactive: -4.55%
